Results: PubChem BioAssay AID588342 (National Center for Advancing Translational Sciences (NCATS), 2011)
About 25,000 (6.9%) of roughly 360,000 compounds were called active. Inconclusive results, whose numbers are uncertain, are shown with a selection of clear calls. The call rests on the fitted dose curve; in most records, active means well fitted inhibition curve with a large enough effect; inconclusive means small, poorly fitted or top-dose-only effect; inactive means flat fitted curve, though single readings scatter. Potencies of inconclusive entries are doubtful fits and often do not repeat.

biological target: Luciferin 4-monooxygenase (Photinus pyralis) (UniProt P08659); experiment: qHTS profiling assay for firefly luciferase inhibitor/activator using purifed enzyme and Km concentrations of substrates (counterscreen for miR-21 project); settings: purified FLuc, luminescence inhibition; series mostly up to 57.5 µM; further: nearly all actives have a fitted effect of over 55% in size
Sequence of UniProt P08659 (P08659 whole entry, looked up): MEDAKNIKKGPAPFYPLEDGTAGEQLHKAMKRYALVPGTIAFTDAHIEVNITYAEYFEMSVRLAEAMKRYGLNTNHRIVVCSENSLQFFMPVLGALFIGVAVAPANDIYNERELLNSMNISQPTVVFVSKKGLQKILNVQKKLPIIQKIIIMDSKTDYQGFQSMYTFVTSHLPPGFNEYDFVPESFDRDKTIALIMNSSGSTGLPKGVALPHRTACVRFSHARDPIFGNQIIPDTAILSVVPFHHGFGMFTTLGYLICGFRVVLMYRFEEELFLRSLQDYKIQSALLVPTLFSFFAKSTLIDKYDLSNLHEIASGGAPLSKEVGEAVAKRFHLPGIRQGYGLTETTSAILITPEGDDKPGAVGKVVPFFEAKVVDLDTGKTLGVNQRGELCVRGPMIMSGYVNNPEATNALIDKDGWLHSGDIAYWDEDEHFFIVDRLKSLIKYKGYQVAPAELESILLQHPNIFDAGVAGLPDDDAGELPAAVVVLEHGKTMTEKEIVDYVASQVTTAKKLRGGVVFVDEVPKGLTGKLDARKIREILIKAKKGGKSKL
Summary of the method: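 Biochemical qHTS of compounds, final roughly 60 µM downward over six points, against 10 nM purified firefly luciferase using Km concentrations of substrates (10 uM D-luciferin, 10 uM ATP) in Tris acetate pH 7.5 buffer; luminescence output.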
Potency means the concentration at half of the fitted maximal effect; tags describe the fitted curve by direction and shape.

Row | Structure (SMILES) | Potency
1 | Cc1ccccc1NS(=O)(=O)c1nnc(NC(=O)c2ccccc2C)s1 | inconclusive: 9.53 µM [inhibitor, partial curve, poor fit]
2 | CSc1nsc(SCC(=O)Nc2ccc(NC(C)=O)cc2)n1 | inactive
3 | C=CCOc1ccc2nc(NC(=O)OC)[nH]c2c1 | inconclusive: 26.9 µM [inhibitor, partial curve, poor fit]
4 | Cc1ccc(C(=O)COC(=O)CCN2C(=O)C3C4CCC(C4)C3C2=O)cc1C (stereo not given) | active: 10.7 µM
5 | CCCCN1CCCc2cc(CN(CCCN3CCOCC3)C(=O)Nc3ccc(OCC)cc3)ccc21 | inactive
6 | Cc1ccc(C(=O)Nc2nc3ccccc3s2)s1 | active: 0.536 µM
7 | Cn1c(N=Nc2ccccc2)nc2ccccc21 | active: 0.478 µM
8 | COc1ccc(C)cc1Nc1c2c(nc3nc(-c4cccs4)nn13)CCCC2 | inconclusive: 26.9 µM [inhibitor, partial curve, poor fit]
9 | COc1ccc([N+](=O)[O-])cc1C(=O)Nc1ccc(Cc2ccncc2)cc1 | inconclusive: 8.49 µM [inhibitor, partial curve]
10 | OC(COCC(F)(F)C(F)(F)C(F)(F)C(F)F)Cn1c2ccccc2c2ccccc21 (stereo not given) | inconclusive: 37.9 µM [inhibitor, single point]
11 | CCc1ccc(-c2nc(CS(=O)CC(=O)NCCN3CCCCCC3)c(C)o2)cc1 (stereo not given) | inconclusive: 42.6 µM [inhibitor, partial curve, poor fit]
12 | O=C(Nc1cccc2ccccc12)OCc1cncs1 | inconclusive: 30.1 µM [inhibitor, single point]
13 | COc1cc(Nc2nc3ccccc3c3nnc(C)n23)cc(OC)c1 | inactive
14 | COc1ccc(CNc2nc3nc(C)c(Cl)c(C)n3n2)cc1 | inconclusive: 16.9 µM [inhibitor, partial curve]
15 | CC1CCCN(CCCOc2ccc(Br)cc2Cl)C1 (stereo not given) | inconclusive: 26.9 µM [inhibitor, single point]
16 | Cc1ccc(C(=O)N/N=C\c2cccc(OC(=O)c3cccc(F)c3)c2)cn1 | active: 8.49 µM
17 | O=C(N/N=C/C1CC2C=CC1C2)c1ccccc1O (stereo not given) | active: 21.3 µM
18 | Oc1c(Cl)cc(Cl)cc1C=Nc1ccc2c(c1)OCCO2 | active: 26.9 µM
19 | Cc1ccc(-c2nnc(Nc3ccc(CC(N)=O)cc3)c3ccccc23)cc1S(N)(=O)=O | inconclusive: 26.9 µM [inhibitor, partial curve, poor fit]
20 | CN(C)c1ccc(N/C=C/C(=O)c2ccccc2)cc1 | active: 0.269 µM
21 | NC(=O)c1c(NC(=O)COC(=O)CSc2nnc(-c3ccc(Cl)cc3)o2)sc2c1CCC2 | inconclusive: 37.9 µM [inhibitor, single point]
22 | CN(Cc1cccnc1)C(=O)CCCc1c[nH]c2ccccc12 | inactive
23 | COc1ccc(-n2ncc3c(NCCC4=CCCCC4)ncnc32)cc1 | inconclusive: 37.9 µM [inhibitor, partial curve, poor fit]

Row | Structure (SMILES) | Potency
24 | COc1ccc(C(=O)COC(=O)C(C)N2C(=O)C3C4CCC(C4)C3C2=O)cc1 (stereo not given) | inconclusive: 37.9 µM [inhibitor, single point]
25 | CCCCN1C(=O)C(=O)N(CC(=O)Nc2ccccc2C(=O)OCC)C1=O | inactive
26 | Cc1ccc(-c2cc3nc(-c4ccccc4)cc(N)n3n2)cc1 | inconclusive: 1.9 µM [inhibitor, full curve]
27 | Cc1cccc(NC(=O)c2ccc(N3C(=O)C4C5C=CC(C6CC56)C4C3=O)cc2)c1 (stereo not given) | inconclusive: 26.9 µM [inhibitor, partial curve, poor fit]
28 | CCc1cc(=O)oc2c3c(cc(OCC(=O)N[C@H](C(=O)O)[C@H](C)CC)c12)OC(C)(C)CC3 | inconclusive: 37.9 µM [inhibitor, partial curve, poor fit]
29 | Cc1ccc2sc(N3CCN(C(=O)CCS(=O)(=O)c4ccc(F)cc4)CC3)nc2c1C | inactive
30 | NC(=NC(=O)c1ccc(OCC(F)(F)F)nc1)c1ccccc1 | inconclusive: 21.3 µM [inhibitor, single point]
31 | Cc1nnc(SCc2ccc(Cl)cc2Cl)[nH]c1=O | inconclusive: 37.9 µM [inhibitor, single point]
32 | CC(C)(C)c1csc(NC(=O)C2COc3ccccc3O2)n1 (stereo not given) | active: 15.1 µM
33 | CCc1ccc(-c2nn(CC(=O)NC3CCCC3)c3c2cnc2ccc(F)cc23)cc1 | inactive
34 | COC(=O)c1ccccc1NC(=O)Cn1nnc2sc(-c3ccccc3)cc2c1=O | inactive
35 | CCCc1ccc(OCC(=O)O)cc1 | inconclusive: 37.9 µM [inhibitor, single point]
36 | O=C(Nc1cccc(OC(F)(F)F)c1)c1ccc(Br)o1 | inconclusive: 23.9 µM [inhibitor, partial curve, poor fit]
37 | COc1ccc(-c2nc(-c3ccccc3)c(-c3ccc(O)cc3)[nH]2)cc1 | inconclusive: 16.9 µM [inhibitor, partial curve]
38 | CCOc1ccc(/C=N/NC(=O)c2ccccc2O)cc1CN1CC2CC(C1)c1cccc(=O)n1C2 (stereo not given) | inconclusive: 21.3 µM [inhibitor, single point]
39 | Cc1ccc(C(=O)ON=C2CCN(S(=O)(=O)c3ccccc3)CC2)cc1 | inconclusive: 23.9 µM [inhibitor, single point]
40 | CC1=CC(C)(C)Nc2ccc(OC(=O)c3ccco3)cc21 | active: 21.3 µM
41 | Cc1cc(C)c(S(=O)(=O)/N=C2/C=C(Sc3ncn[nH]3)C(=O)c3ccccc32)cc1C | inconclusive: 16.9 µM [inhibitor, partial curve]
42 | CCn1c(NC(=O)c2nn(C)cc2Br)nc2ccccc21 | inactive
43 | COc1cccc(COc2ccccc2C2Nc3ccc(Br)cc3C(=O)N2NC(=O)c2ccncc2)c1 (stereo not given) | inconclusive: 37.9 µM [inhibitor, single point]
44 | COc1ccccc1C(=O)Nc1nc(-c2ccccc2)ns1 | inconclusive: 2.13 µM [inhibitor, full curve]
45 | CCCOc1ccc(-c2nn(-c3ccccc3)cc2C2NC(=O)NC(C)=C2C(=O)OC)cc1C (stereo not given) | inconclusive: 26.9 µM [inhibitor, partial curve, poor fit]
